First the molecules themselves.
B1: LINE1-full (parent)
chain: UACGUAGGUGGUUUUCCCCUGAUAGUGCUAAGGGGGCCUGGAAGUUUGGACUGGGCAGAGCUCAACACAGCGUGGCAAAGUGGCUGUGGCUAGACUGCCUCUCUGGAUUCCUCGUCACUCAGCAGGGCAUCUCUGAGAGAAAUGCC

The source gives no read counts; variants with many changes may rest on few reads.

The variants in this series derive from B1. The series can be described thus: self-cleavage, relative activity (ratio to wild type); higher = more cleavage; in vitro, sequencing; the parent is a self-cleaving ribozyme.
In the case of UACGUAGGUGGUUCUCCCCUGAUAGUGCUAAGGGGGCCUGGAAGUUUGGACUGGGCAGAGCUCAACACAGCGUGGCAAAGUGGCUGUGGCUAGACUGCCUCUCUGGAUUCCUCGUCACUCAGCAGGGCAUCUCUGAGGGAACUGCC [U14C A138G A142C], the self-cleavage worked out at 1.37.

Regarding UACGUAGGUGGUUCUCCCCUGAUAGUGCUAAGGGGGCCUGGAAGUUUGGACUGGGCAGAGCUCAACUCAGCGUGGCAAGGUGGCUGUGGCUAGACUGCCUCUCUGGAUUCCUCGUCACUCAGCAGGGCAUCUCUGGGAGAAAUGCC [U14C A67U A79G A136G], the self-cleavage came out at 0.12. For UACGUAGGUGGUUCUCCCCUGAUAGUGCUAAGGGGGCCUGGAAGUUUGGACUGGGCAGAGCUCAACGCAGCGUGGCAAAGUGGCUGUGGCUAGACUGCCUCUCUGGAUUCCUCGUCACUCAGCAGGGCAUCUCUGGGAGAAAUGCC [U14C A67G A136G] the value was 0.4.

Turning to UACGUAGGUGGUUCUCCCCUGAUAGUGCUAAGGGGGCCUGGAAGUUUGGACUGGGCAGAGCUCAACACAGCGUGGCAGAGUGGCCGUGGCUAGACUGCCUCUCUGGAUUCCUCGUCACUCAGCAGGGCAUCUCUGGGAGAAAUGCC [U14C A78G U85C A136G], the self-cleavage was 0. For UACGUAGGUGGUUCUCCCCUGAUAGUGCUAAGGGGGCCUGGAAGUUUGGACUGGGCAGAGCUCAACACAGCGUGGCAAUGUGGCUGUGGCCAGACUGCCUCUCUGGAUUCCUCGUCACUCAGCAGGGCAUCUCUGAGAGAAAUGCC [U14C A79U U91C] the value was 0.93; for UACGUAGGUGGUUCUCCCCUGAUAGUGCUAAGGGGGCCUGGAAGUUUGGACUGGGCAGAGCUCAACACAGCGUGGCAAAGUGGCUGUGGCUAGACUGCCUCUCUGGAUUCCUCGUCACUCAGCGGGGCAUCUCUGAGAGGAAUGCC [U14C A124G A140G], 0.41; for UACGUAGGUGGUUCUCCCCUGAUAGUGCUAAGGGGGCCUGGAAGUUUGGACUGGGCAGAGCUCAACACAGCGUGGCUAAGUGGCUGUGGCUAGACUGCCUCUCUGGGUUCCUCGUCACUCAGAAGGGCAUCCCUGAGAGAAAUGCC [U14C A77U A107G C123A U132C], 0.68. For UACGUAGGUGGUUCUCCCCUGAUAGUGCUAAGGGGGCCUGGAAGUUUGGACUGGGCAGAGCUCAACACGGCGUGGCAAAGUGGCUGUGGCUAGACUGCCUCUCUGGAUUCCUCGUCACUCAGCAGGUCAUCUCUGAGAGAAAUGCC [U14C A69G G127U] the value was 0.46. The result for UACGUAGGUGGUUCUUCCCUGAUAGUGCUAAGGGGGCCUGGAAGUUUGGACUGGGCGGAGCUCAACACAGCGUGGCAAAGUGGCUGUGGCUAGGCUGCCUCUCUGGAUUCCUCGUCACUCAGCAGGGCAUCUCUGAGAGAAAUGCC [U14C C16U A57G A94G] reads 0.84. In the case of UACGUAGGUGGUUCUCCCCUGAUAGUGCUAAGGGGGUCUGGAAGUUUGGACUGGGCAGAGCUCAACACAGCGUGGCAAAGUGGCUGUGGCUAGACUGCCUCUCUGGAUACCUCGUCACUCAGCAGGGCAUCUCUGAGAGAAAUGCC [U14C C37U U109A], the self-cleavage amounted to 0.51. For the variant UACGUAGGUGGUUCUCCCCUGAUAGUGCUAAGGGGGCCUGGAAGUUUGGACUGGGCAGAGCUCAACACUGCGUGGCAAAGUGGCUGUGGCUAGACUGCCUCUCUGGAUUCCUCGUCACUCAGCAGGGCACCUCUGAGAGAAAUGCC [U14C A69U U130C], the self-cleavage was determined as 0.27.

On to UACGUAGGUGGUUCUCCCUUGAUGGUGCUAAGGGGGCCUGGAAGUUUGGACUGGGCAGAGCUCAACACAGCGUGGCUAAGUGGCUGUGGCUAGACCGCCUCUCUGGAUUCCUCGUCACUCAGCAGGGCAUCUCUGAGAGAAAUGCC [U14C C19U A24G A77U U96C], for which the self-cleavage was found to be 0.11. For the variant UACGUAGGUGGUUCUCCCCUGAUAGUGCUAAGGGGGCCUGGAAGUUUGGACUGGGCAGAGCUCAACACAGCGUGGCAGAGUGGCUGUGGCUAGAAUGCCUCUCUGGAUUCCUCGUCACUCAGCAGGGCAUCUCUGAGAGAAAUGCC [U14C A78G C95A], the self-cleavage was determined as 0.12. For UACGUAGGUGGUUCUCCCCUGAUAGUGCUAAGGGGGCCUGGAAGUUUGGACUGGGCAGAGCUCAACACAGCGUGGCAGAGUGGCUGUGGCUAGACUGCCUCUCUGGAUUCCUCGUCACUCAGCAGGGCAUCUCCGAGAGAAAUGUC [U14C A78G U134C C145U] the value was 1.96; for UACGUAGGUGGUUCUCCCCUGAUAGUGCUAAGGGGGUCUGGAAGUUUGGACUGGGCAGAGCUCAACACAGCGUGGCAAAGUGGCUGUGGCUAGACUGCCUCUCUGGAUACCUUGUCACUCAGCAGGGCAUCUCUGAGAGAAGUGCC [U14C C37U U109A C113U A142G], 0.89. For UACGUAGGUGGUUCUCCCUUGAUAGUGCUAAGGGGGCCUGGUAGUUUGGACUGGGCAGAGCUCAACACAGCGUGGCAAAGUGGCUGUGGCUAGACUGCCUCUCUGGAUUCCUCGUCACUCAGCAGGGCAUCUCUGAGAGAAAUGCC [U14C C19U A42U] the value was 0.94; for UACGUAGGUGGUUCUCCCCUGAUAGUGCUAAGGGGGACCGGAAGUUUGGACUGGGCAGAGCUCAACACAGCGUGGCAAAGUGGCUGUGGCUAGACUGCCUCUCUGGAUUCCUCGUCACUCAGCAGGGCAUCUCUGAGUGAAAUGCC [U14C C37A U39C A138U], 1.22. In the case of UACGUAGGUGGUUCUCCCCUGAUAGUGCUAAGGGGGCCUGGAAGUUUGGACUGGGCAGAGCUCAACGCAGCGUGGCAAAGUGGCUGUGGCUAGACUGCCUCUCUGGCUUCCUCGUCACUCAGCAGGGCACCUCUGAGAGAAGUGCC [U14C A67G A107C U130C A142G], the self-cleavage amounted to 0. Consider UACGUAGGUGGUUCUCCCCUGAUAGUGCUAAGGGGGCCUGGAAGUUUGGACUGGGCAGAGCUCAACGCAGCGUGGCAAAGUGGCUGUGGCUAGACUGCCUCUCUGGAUUCCUCGACACUCAGCAGGGCAUCUCUGGGAGAAAUGCC [U14C A67G U115A A136G], for which the self-cleavage was 1.12. For UACGUAGGUGGUUCUCCCCUGAUAGUGCUAAGGGGGCCUGGAAGUUUGGACUGGGCAGAGCUCAACACAGCGUGGCAGAGUGGCUGUGGCUAGACUGCCUCUCUGGAUUCCUCGUCACUCAGCAGGGCACCUCUGAGAGAAAUGCC [U14C A78G U130C] the value was 0.92.

Consider UACGUAGGUGGUUCUCCUCUGAUAGUGCUAAGGGGGCCUGGAAGUUUGGACUGGGCAGAGCUCAACACAGCAUGGCAAAGUGGCUGUGGCUAGACUGCCUCUCUGGAUUCCUCGUCACUCAGCAGGGCAUCUCUGAGAGAAGUGCC [U14C C18U G72A A142G], for which the self-cleavage worked out at 1.9. With UACGUAGGUGGUUCUCCCCUGAUAGUGCUAAGGGGGCCUGGAAGUUUGGACUGGGCAGAGCUCAACACAGCGUGGCAUAGUGGCUGUGGCUAGACUGCCUCUCUGGAUUCCUCGUCACUCAGCAGGGCGUCUCUGAGAGAAAUGCC [U14C A78U A129G], the self-cleavage came to 1.72.

In the case of UACGUAGGUGGUUCUCCCCUGAUAGUGCUAAGGGGGCCUGGAAGUUUGGACUGGGCAGAGCUCAACACAGCGUGGCAGAGUGGCUGUGGCUAGACUGCCUCUCUGGAUUCCUCGUCACUCAGCAGGGCAUCUCUGAGAGGAAUGCC [U14C A78G A140G], the self-cleavage is 0.86. For UACGUAGGUGGUUCUCCCCUGAUAGUGCUAAGGGGGCCUGGAAGUUUGGACUGGGCAGAGCUCAACACAGCGUGGCAACGUGGCUGCGGCUAGACUGCCUCUCUGGAUUCCUCGUCACUCAGCAGGGCAUCUCUGAGAGAAAUGCC [U14C A79C U87C] the value was 0.54; for UACGUAGGUGGUUCUCCCCUGAUAGUGCUAAGGGGGCCUGGAAGUUUGGACUGGGCAGAGCUCAACACGGCGUGGCAAAGUGGCUGUGGCUAGACUGCCUCUCUGGAUUCCUCGUCACUCAGCAGGGCAUCUCUGCGAGAAAUGCC [U14C A69G A136C], 1.11. The result for UACGUAGGUGGUUCUCCCCUGAUAGUGCUAAGGGGGCCUGGAAGUUUGGACUGGGCAGAGCUCAACGCAGCGUGGCAAAGUGGCCGUGGCUAGACUGCCUCUCUGGAUUCCUCGUCACUCAGCAGGGCAUCUCUGAGAGAAAUGCC [U14C A67G U85C] reads 0. The result for UACGUAGGUGGUUCUCCCCUGAUAGUGCUAAGGGGGCCUGGAAGUUUGGACUGGGCAGAGCUCAACGCAGCGUGGCAAAGUGGCAGUGGCUAGACUGCCUCACUGGAUUCCUCGUCACUCAGCAGGGCAUCUCUGAGAGAAAUGCC [U14C A67G U85A U102A] reads 0.07; that for UACGUAGGUGGUUCUCCCCUGAUAGUGCUAAGGGGGCCUGGAAGUUUGGACUGGGCAGAGCUCAACACGGCGUGGCAAAGUGGCUGUGGCUAGACUGCCUCUCUGGAUUCCUCGUCACUCAGCAGGGCAUCUCCGAGAGAAACGCC [U14C A69G U134C U143C], 0.46; that for UACGUAGGUGGUUCUCCCCUGAUAGUGCUAAGGGGGCCUGGAAGUUUGGACUGGGCAGAGCUCAACACAGCGUGGCAGAGUGGCUGUGGCUAGACUGCCUCUCUGGAUUCCUCGUCUCUCAGCAGGGCAUCUCUGAGAGAAAUGCC [U14C A78G A117U], 0.9.

On to UACGUAGGUGGUUCUCCCCUGAUAGUGCUAAGGGGGCCUGGAAGUUUGGACUGGGCAGAGCUCAACUCAGCGUGGCAAAGUGGCUGUGGCUAGACUGCCUCUCUGGAUUCCUCGUCACUCAGCAGGGCGUCUCUGAGAGAAAUGCC [U14C A67U A129G], for which the self-cleavage was 0.12. For UACGUAGGUGGUUCUCCCCUGAUAGUGCUAAGGGGGCCUGGAAGUUUGGACUGGGCAGAGCUCAACACAGCGUGGCUAAGUGGCUGUGGCUAGACUGCCUCUCUGGAUUCCUCGUCACUCAGCAGGGCUUCUCUGAGAGAAAUGCC [U14C A77U A129U] the value was 0.84. As for UACGUAGGUGGUUCUCCCAUGGUAGUGCUAAGGGGGCCUGGAAGUUUGGACCGGGCAGAGCUGAACACAGCGUGGCAAAGUGGCUGUGGCUAGACUGCCUCUCUGGAUUCCUCGUCACUCAGCAGGGCACCUCUGAGAGAAAUGCC [U14C C19A A22G U52C C63G U130C], the self-cleavage is 0.53.

As to UACGUAGGUGGUUCUCCCUUGAUAGUGCUAAGGGGGCCUGGAAGUUUGGACUGGGCAGAGCUCAACACAGCGCGGCAAAGUGGCUGUGGCUAGACUGCCUCUCUGGAUUCCUCGUCACUCAGCAGGGCAUCUCUGAGAGAAAUGCC [U14C C19U U73C], the self-cleavage is 0.87. UACGUAGGUGGUUCUCCCCUGAUAGUGCUAAGGGGGCCUGGAAGUUUGGACUGGGCAGAGCUCAACACAGCGUGGCAAAGUGGCUGUGGCUAGACUGCCUCUCUGGGUUCCUCGUCACUCAGCAGGGCAUCUCUGUGAGAAAUGCC [U14C A107G A136U]: the self-cleavage worked out at 1.67.

For UACGUAGGUGGUUCUCCCCUGAUAGUGCUAAGGGGGCCUGGAAGUUUGGACUGGGCAGAGCUCAACACAGCGUGGCAAAGUGGCUGUGGCUGGACUGCCUCCCUGGAUUCCUCGUCACUCCGCAGGGCAUCUCUGAGAGAAAUGCC [U14C A92G U102C A121C], the self-cleavage turned out to be 0.28. The result for UACGUAGGUGGUUCUCCCCUGAUAGUGCUAAGGGGGCCUGGAAGUUUGGACUGGGCAGAGCUCAACACAGCGUGGCGAAGUGGCUGUGGCUAGACUGCCUCUCUGGAUUCCUCGUCGCUCAGCAAGGCAUCUCUGAGAGAAGUGCC [U14C A77G A117G G125A A142G] reads 2.19; that for UACGUAGGUGGUUCUCCCUUGAUAGUGCUAAGGGGGCCUGGAAGUUUGGACUGGGCAGAGCUCAACACAGCGUGGCAAAGUGGCUGGGGCUAGACUGCCUCGCUGGAUUCCUCGUCACUCAGCAGGGCAUCUCUGAGAGAAAUGCC [U14C C19U U87G U102G], 0.66. The result for UACGUAGGUGGUUCUCCCCUGAUAGUGCUAAGGGGGCCUGGAAGUUUGGACUGGGCAGAGCUCAACACAGCGUGGCAAGGUGGCUGUGGCUAGACUGCCUCUCUGGAUUCCUCGUCACUCAGCAGGGCAACUCUGAGAGAAAUGCC [U14C A79G U130A] reads 1.53; that for UACGUAGGUGGUUCUCCCCUGAUAGUGCUAAGGGGGCCUGGAAGUUUGGACUGGGCAGAGCUCAACGCAGCGUGGCAAAGUGGCUGUGGCUAGACUGCCUCUCUGGAUUCCUCGUCACUCAGCAGGGCAUGUCUGAGAGAAGUGCC [U14C A67G C131G A142G], 0.61.

The values above are taken from the RNAGym collection of RNA variant scans (doi:10.7554/elife.90254).
